According to PubChem BioAssay AID504706 (National Center for Advancing Translational Sciences (NCATS), 2011):
Out of some 320,000 compounds screened, about 200 (0.062%) were called active. Inconclusive means that the source gave no clear call. Such entries were picked first, then a sample of the others. The call rests on the fitted dose curve; in most records, active means well fitted activation curve with a large enough effect; inconclusive means small, poorly fitted or top-dose-only effect; inactive means no such curve, though single readings can be large or run the other way. No potency is given beside an inconclusive call; the fits are too rough.

Assay: qHTS assay for re-activators of p53 using a Luc reporter; further: nearly all actives have a fitted effect of over 45% in size
Conditions: H1299 p53-A138V BP100-luciferase reporter, luminescence, 24 h; series mostly up to 92.2 µM
Summary of the method: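 p53-null H1299 cells stably carrying temperature-sensitive p53-A138V and a BP100-luciferase reporter were pinned with compounds (4-point, 1:5 series) and held 24 hrs at 37 deg C. Luminescence was read 10 min after detection reagent.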
Potency means the concentration at half of the fitted maximal effect; tags describe the fitted curve by direction and shape.

Row | SMILES | Potency
1 | CN(c1ccc(C(=O)NCc2ccco2)cc1)S(C)(=O)=O | inconclusive [activator, full curve]
2 | O=C(COc1cc2oc(=O)c3c(c2cc1Cl)CCC3)Nc1cccnc1 | inconclusive [activator, partial curve, poor fit]
3 | Cc1cc(-n2nnc3ccccc32)nc2ccccc12 | inconclusive [activator, single point]
4 | Oc1ccc2ccccc2c1/C=N/Nc1nnc(-c2ncc[nH]2)c2ccccc12 | inconclusive [activator, partial curve, poor fit]
5 | CC(=C/c1ccccc1)/C=N/NC(=O)c1cnccn1 | inconclusive [activator, partial curve, poor fit]
6 | O=C(Nc1cccc(Cl)c1)NC1CCCCC1 | inconclusive [activator, partial curve, poor fit]
7 | CCn1cc([N+](=O)[O-])c(C(=O)Nc2nc(-c3ccc(C)cc3)c(C)s2)n1 | inactive
8 | O=C(CN1CCc2ccccc21)Nc1ccc2c(c1)OCCCO2 | inconclusive [activator, partial curve, poor fit]
9 | Cc1cc(NC(=O)c2ccccc2C)no1 | inconclusive [activator, single point]
10 | COc1ccc(C(c2c[nH]c3ccccc23)c2c[nH]c3ccccc23)cc1O | inconclusive [activator, single point]
11 | Cn1ccnc1SCC(=O)Nc1ccc2c(c1)COC2=O | inconclusive [activator, full curve, poor fit]
12 | NC(N)=Nc1nc(C2COc3ccccc3O2)cs1 (centres undefined) | inconclusive [activator, partial curve, poor fit]
13 | Cc1ccccc1C(=O)Nc1nnc(CC(=O)N/N=C/c2ccco2)s1 | inactive
14 | CCc1ccc2c(COC(=O)C3CC(=O)N(CCc4ccccc4)C3)cc(=O)oc2c1 (centres undefined) | inactive
15 | Cc1cccc(N2C(=O)c3cccc4c(N(C)CCO)ccc(c34)C2=O)c1 | inactive
16 | C(=N\Nc1nc2ccccc2s1)/c1ccco1 | inconclusive [activator, full curve, poor fit]
17 | Cc1ccc(-c2nc3ccsc3c(=O)o2)cc1 | inconclusive [activator, partial curve, poor fit]
18 | Nc1[nH]nc2nc(NCc3ccccc3)c3c(c12)CCN(Cc1ccccc1)C3 | inconclusive [activator, single point]
19 | CCn1nnnc1SCC(=O)Nc1nc(C)c(C)s1 | inactive
20 | CCC(=O)NC(=S)Nc1cccc(Cl)c1N1CCCCC1 | inconclusive [activator, single point]
21 | CC/C(=N\NC(=O)c1nnn(-c2nonc2N)c1CN(C)c1ccccc1)c1ccccc1 | inactive
22 | CC1CCCN(C(C(=O)NC2CCCCC2)c2cc3c(cc2[N+](=O)[O-])OCO3)C1 (centres undefined) | inconclusive [activator, full curve, poor fit]
23 | CCCCOCCCNC(=O)C1c2ccccc2Oc2ccccc21 | inconclusive [activator, single point]

Row | SMILES | Potency
24 | COc1ccccc1NC(=O)Cn1cnc2c(cnn2-c2ccc(C)c(C)c2)c1=O | inactive
25 | O=C(CCCC(=O)OCC(=O)c1cccs1)Nc1ccc(Oc2ccccc2)cc1 | inactive
26 | Cc1ccc(C(=O)Nn2c(N)c(S(=O)(=O)c3ccc(C)cc3)c3nc4ccccc4nc32)cc1 | inactive
27 | Cc1ccc(OCCCCNC(C)(C)C)c([N+](=O)[O-])c1 | inconclusive [activator, single point]
28 | CCN(CC(=O)Nc1cc(OC)ccc1OC)Cc1nc2ccccc2c(=O)[nH]1 | inactive
29 | COc1ccc(OC)c(N/C(C)=C/C(=O)c2ccccc2)c1 | inconclusive [activator, partial curve, poor fit]
30 | Cc1ccc(CNc2nc3ccccc3n2C)o1 | inconclusive [activator, full curve, poor fit]
31 | CSc1cccc(NC(=O)/C=C/c2cccc(Cl)c2)c1 | inconclusive [activator, partial curve, poor fit]
32 | CC(=O)c1ccc(NC(=O)Nc2ccccc2)cc1 | inconclusive [activator, full curve, poor fit]
33 | Cn1c(=N)n(CC(=O)c2ccc(Br)s2)c2ccccc21 | inconclusive [activator, partial curve, poor fit]
34 | O=C(CSc1ccc(Cl)cc1)Nc1ccc(-c2nc3ccccc3[nH]2)cc1 | inactive
35 | COc1ccc(C(=O)NC2CCCCCC2)cc1S(=O)(=O)N1CCOCC1 | inactive
36 | Cc1ccccc1NC(=O)c1cc(C(=O)c2cc(Cl)ccc2O)cn(-c2ccccc2C)c1=O | inconclusive [activator, partial curve, poor fit]
37 | Cc1nc(SCC(=O)NNC(=O)c2cccs2)[nH]c(=O)c1C | inconclusive [activator, partial curve, poor fit]
38 | C=CCN1C(=O)CSC1=Nc1cccc(O)c1 | inconclusive [activator, single point]
39 | O=C(/C=C/c1ccc2c(c1)OCO2)Nc1nc(-c2ccc(F)cc2F)cs1 | inactive
40 | CC(N=Cc1cccc(O)c1O)c1ccccc1 (centres undefined) | inconclusive [activator, single point]
41 | Nc1ccc(N=Nc2ccccc2Cl)c(N)n1 | inconclusive [activator, partial curve, poor fit]
42 | CN(C)C(=O)CSc1cccc2cccnc12 | inactive
43 | COC(=O)C1CCN(C(=O)c2oc3c(Cl)cc(C)cc3c2C)CC1 | active: 15.8 µM
44 | CCCn1nnc(NC(=O)c2ccc3ccccc3c2)n1 | inconclusive [activator, partial curve, poor fit]
45 | O=C(Nc1cc(Br)ccc1O)c1cc(-c2cccs2)on1 | inconclusive [activator, partial curve, poor fit]
46 | Cc1cc(C)cc(NC(=O)CSc2nc(N)c(NC(=O)c3cccs3)c(=O)[nH]2)c1 | inactive

Row | SMILES | Potency
47 | Cc1ccc(CN2CN(S(=O)(=O)c3cccs3)c3nc4ccccc4nc32)cc1 | inconclusive [activator, partial curve, poor fit]
48 | Cn1c(=S)oc2ccccc21 | inactive
49 | CCOC(=O)c1c(S(=O)(=O)N2CCCCCC2)c(C)n(C)c1C | inactive
50 | O=C(Nc1ccc(-c2nc3c(ccc4ccccc43)o2)cc1)c1ccco1 | inconclusive [activator, partial curve, poor fit]
51 | O=C(N/N=C/c1ccccn1)c1cc(-c2ccc(Cl)cc2)nc2ccccc12 | inconclusive [activator, partial curve, poor fit]
52 | COc1ccc2oc(=Nc3ccccc3)c(-c3nc4ccccc4[nH]3)cc2c1 | inconclusive [activator, partial curve, poor fit]
53 | CCc1c(O)nc(SCC(=O)N(CC)CC)[nH]c1=O | inconclusive [activator, single point]
54 | CCn1nnnc1SCC(=O)Nc1ccc2c(c1)OCO2 | inconclusive [activator, partial curve, poor fit]
55 | Cc1ccc(-c2noc(C3CCCN(C(=O)c4ccccc4)C3)n2)o1 (centres undefined) | inconclusive [activator, partial curve, poor fit]
56 | Cc1ccc2nc3c(cc(C#N)c(=N)n3CC3CCCO3)c(=O)n2c1 (centres undefined) | inconclusive [activator, partial curve, poor fit]
57 | CC(=O)O[C@H]1CC(C)(C)C(=C=C/C(C)=C/C=C/C(C)=C/C=C/C=C(C)/C=C/C=C(\C)C(=O)C[C@@]23O[C@]2(C)C[C@@H](O)CC3(C)C)[C@](C)(O)C1 | inconclusive [activator, single point]
58 | CCC(=O)c1ccc(OCc2ccccc2)c(OC)c1 | inconclusive [activator, partial curve, poor fit]
59 | CCOC(=O)c1cc(-c2ccccc2)sc1NC(=O)C(C)OC(=O)c1cccc(S(=O)(=O)N(C)C)c1 (centres undefined) | inactive
60 | N/C(Cc1nc(-c2ccc(Br)cc2)cs1)=N\O | inactive
61 | Cc1ccc(NC(=O)n2ncc3c(C)cccc32)c(C)c1 | inconclusive [activator, partial curve, poor fit]
62 | COC(=O)c1ccc(C(=S)N2CCOCC2)cc1 | inactive
63 | CCC(/C=N/NC(=O)c1ccccc1F)CC | inconclusive [activator, full curve, poor fit]
64 | Cc1ccc(C2(C)NC(=O)N(CC(=O)Nc3ccc(-c4nc5ccc(C)cc5s4)cc3)C2=O)cc1 (centres undefined) | inconclusive [activator, full curve, poor fit]
65 | COc1ccc(OC)c(C2c3[nH]c4ccccc4c3C[C@H]3C(=O)N(CCCOC(C)C)CC(=O)N23)c1 (some centres undefined) | inactive
66 | Cn1nc(C(=O)NCc2ccccn2)c2ccccc2c1=O | inactive
67 | c1ccc(CSc2snnc2-c2ccccc2)cc1 | inconclusive [activator, partial curve, poor fit]
68 | O=C(NNc1nc2c(F)cccc2s1)c1cc(=O)c2ccccc2o1 | inconclusive [activator, partial curve, poor fit]
69 | Cc1cc(-c2cccs2)n[nH]1 | inconclusive [activator, partial curve, poor fit]
